Reference: PubChem BioAssay AID1468 (National Center for Advancing Translational Sciences (NCATS), 2008)
Several values for one entry are separate records, joined by “and”; a condition that tells them apart may be missing. Equal values may be shown once. About 1,100 (0.39%) of roughly 280,000 compounds were called active. Inconclusive results, whose numbers are uncertain, are shown with a selection of clear calls. Calls follow the shape of the dose curve; as a rule, active = well fitted inhibition curve with a large enough effect; inconclusive = small, poorly fitted or top-dose-only effect, or effect the other way; inactive = flat fitted curve, though single readings scatter. Where the call is inconclusive, the potency comes from a doubtful curve fit.

biological target: Microtubule-associated protein tau (Homo sapiens) (UniProt P10636); assay: qHTS for Inhibitors of Tau Fibril Formation, Fluorescence Polarization; conditions: K18 P301L tau heparin fibrillization, Alexa594 FP, 6 h; series mostly up to 57.7 µM; also: nearly all actives have a fitted effect of over 55% in size
UniProt P10636, sequence (P10636 whole entry, looked up, the tested form may be a part): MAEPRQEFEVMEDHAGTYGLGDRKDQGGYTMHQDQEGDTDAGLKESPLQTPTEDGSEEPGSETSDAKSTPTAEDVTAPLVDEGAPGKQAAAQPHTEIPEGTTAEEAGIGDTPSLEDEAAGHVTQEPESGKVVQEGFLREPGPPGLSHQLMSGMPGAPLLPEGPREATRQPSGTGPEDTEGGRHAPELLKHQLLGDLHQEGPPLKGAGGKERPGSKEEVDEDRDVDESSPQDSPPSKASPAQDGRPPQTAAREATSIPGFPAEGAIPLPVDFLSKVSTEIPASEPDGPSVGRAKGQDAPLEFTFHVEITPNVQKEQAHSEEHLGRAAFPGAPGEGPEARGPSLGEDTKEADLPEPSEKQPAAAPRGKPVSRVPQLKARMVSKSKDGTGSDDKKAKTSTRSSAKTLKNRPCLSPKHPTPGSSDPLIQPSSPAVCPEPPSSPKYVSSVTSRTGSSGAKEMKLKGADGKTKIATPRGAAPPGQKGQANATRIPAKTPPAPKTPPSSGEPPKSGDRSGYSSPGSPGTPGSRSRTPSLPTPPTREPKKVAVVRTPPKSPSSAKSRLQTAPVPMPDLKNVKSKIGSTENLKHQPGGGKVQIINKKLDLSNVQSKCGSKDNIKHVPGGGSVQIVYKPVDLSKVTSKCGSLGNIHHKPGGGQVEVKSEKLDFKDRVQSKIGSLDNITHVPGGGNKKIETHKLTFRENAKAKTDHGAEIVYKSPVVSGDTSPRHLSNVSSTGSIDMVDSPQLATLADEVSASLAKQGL
In short: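 Human tau K18 […] P301L fragment, 15 uM unlabeled plus 0.24 uM Alexa 594-labeled tau (final), with compound and 20 uM heparin in 100 mM sodium acetate pH 7; 6 hr at 37 C, then Alexa 594 FP read.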
Potency is read from the fitted curve at half-maximal effect; tags tell the direction and shape of the fitted curve.

Potency, inactive:
CCC(CC)C1C(C#N)=C(N)Oc2cc(C)oc(=O)c21 (configuration not stated)
CN(C)N1C(N)=C(C#N)C(c2cccs2)C2=C1CC(C)(C)CC2=O (configuration not stated)
CCNc1nc(CN2CCOCC2)nc2sc3c(c12)CCC3
CC(=O)c1cccc(NC(=O)CSc2nc3c(=O)n(C)c(=O)n(C)c3n2C)c1
COc1cccc(-c2ccc3c(N)c(C(=O)Nc4ccccc4C)sc3n2)c1
O=[N+]([O-])C1=CC=C2C(=NC3(CCCCC3)N2O)C1=NCCc1ccccc1
Cc1nc(=O)cc(-c2ccccc2)n1-c1ccccc1
COc1cccc(CNc2ccccc2O)c1OCc1ccccc1F
CCc1cccc(NC(=O)CCS(=O)(=O)c2cc3c4c(c2)CCN4C(=O)CC3)c1
COc1cc(OC)c(NC(=O)c2c3c(nc4ccccc24)C(=O)N(C2CCCCC2)C3)cc1Cl
O=C(COc1ccccc1)Nc1ccc(S(=O)(=O)N2CCCC2)cc1
Cc1ccc(C)c(CSc2cn(CCNC(=O)c3ccccc3F)c3ccccc23)c1
COC(=O)C1=C(C(=O)OC)[C@@H]2N(C)c3ccccc3[C@@]23C[C@@H](C(=O)OC)N(C(=O)CC(C)C)C3=N1
COc1cc2[nH]c(=S)n(C3CCCC3)c(=O)c2cc1OC
CN=C1S/C(=C\c2ccc(N3CCOCC3)c(F)c2)C(=O)N1C
Cc1cccc(Oc2ccc(NC(=O)CCC(=O)OCC(=O)c3ccc(Br)cc3)cc2)c1C
O=C(/C=C/c1ccco1)Nc1cccnc1
Cc1nn(C(C)(C)C)c(OC(=O)c2cccc(F)c2)c1Sc1ccccc1

Potency, active:
O=C(Nc1ccccc1)Nc1cc(OCC(F)(F)F)cc(OCC(F)(F)F)c1 11.2 µM
Cc1ccccc1NC(=O)CSc1nnc(-c2ccco2)c(-c2ccco2)n1 8.91 µM
O=c1cc2oc3cc(O)c(O)cc3c(-c3ccccc3O)c-2cc1O 12.6 µM
CN1CCc2cccc3c2[C@@H]1Cc1ccc(O)c(O)c1-3 22.4 µM and 28.2 µM

Potency, inconclusive:
Cn1cc(NC(=O)c2cc(NC(=O)c3cc(NC=O)cn3C)cn2C)cc1C(=O)NCCC(=N)N 17.8 µM [inhibitor, single point]
Fc1ccc(NC(=S)Nc2ccccc2OC(F)F)cc1Cl 31.6 µM [inhibitor, single point]
O=C(Cn1c(=O)oc2ccccc21)Nc1ccc(S(=O)(=O)N2CCCCC2)cc1 22.4 µM [inhibitor, single point]
COc1ccc(N2CCN(Cc3cc4c(cc3O)CCC4)CC2)cc1 0.501 µM [activator, full curve, poor fit]
Cc1nccn1CC(=O)N/N=C/c1ccc(O)c(O)c1 0.316 µM [inhibitor, full curve, poor fit]
CC(=O)c1cc(-c2ccccc2)n(CC(=O)NCc2ccccc2C)c1C 0.0891 µM [inhibitor, full curve, poor fit]
Cc1cccc(-n2cnc3cc(C(=O)NC4CCCCCC4)ccc32)c1 11.2 µM [activator, partial curve, poor fit]
CCc1cccc(N2C(=O)N(Cc3c(F)cccc3Cl)c3ccccc3S2(=O)=O)c1 12.6 µM [inhibitor, partial curve]
CCCCNC(=O)c1ccc2c(c1)NC(=O)C(CS(=O)(=O)Cc1ccc(F)cc1Cl)N2 (configuration not stated) 31.6 µM [inhibitor, partial curve]
Cc1cc2nc(-c3ccc(SCc4ccccc4C#N)nc3)[nH]c2cc1C 15.8 µM [inhibitor, partial curve]
Cc1ccc(-c2cc3nc(C)cc(NCc4ccco4)n3n2)cc1 39.8 µM [activator, single point]
Cc1cc(C)nc(SCc2nnc(SCC(=O)Nc3ccc(Cl)c(C(F)(F)F)c3)o2)n1 28.2 µM [inhibitor, single point]
O=C1C(NS(=O)(=O)c2ccc(Cl)cc2)=C(N2CCCCC2)C(=O)c2ccccc21 35.5 µM [inhibitor, single point]
CC(=O)Nc1ccc(S(=O)(=O)N(Cc2ccccc2)Cc2ccccc2)cc1 14.1 µM [inhibitor, partial curve]
NC(=O)c1ccc(NC(=O)COC(=O)c2cc(S(=O)(=O)N3CCOCC3)ccc2N2CCCCC2)cc1 39.8 µM [inhibitor, single point]
O=C(NCc1ccco1)c1ccc2c(c1)N(Cc1ccccc1F)C(=O)c1ccccc1S2(=O)=O 0.1 µM [inhibitor, full curve, poor fit]
O=C(N/N=C/c1ccc(O)cc1O)c1ccc(CN2C(=O)c3cccc4cccc2c34)cc1 3.16 µM [activator, single point]
Nc1ccc2oc(Cc3ccc(Cl)cc3)nc2c1 10 µM [inhibitor, partial curve]
CC(C)CN1C(=O)/C(=C/c2c(N3CCc4ccccc4C3)nc3ccccn3c2=O)SC1=S 39.8 µM [inhibitor, single point]
COc1ccccc1/C=C/C=N/n1c(COc2ccccc2)n[nH]c1=S 39.8 µM [inhibitor, single point]
COc1cc(NC(=S)NCCC(c2ccccc2)c2ccccc2)cc(OC)c1 25.1 µM [inhibitor, partial curve, poor fit]
COC(=O)Cn1nc(-c2ccccc2)c2cc(Cl)ccc21 22.4 µM [inhibitor, single point]
CCCCNc1nc2c(c(=O)n(Cc3ccccc3)c(=O)n2C)n1C 10 µM [activator, single point]
Cc1ccc(OCC(=O)NC(=S)Nc2cccc(NC(=O)c3ccccc3)c2)cc1 8.91 µM [inhibitor, full curve]
COc1ccc(N(C)C(=O)c2cc3c(s2)-c2ccccc2OC3)cc1 0.794 µM [activator, single point]
C[C@@H](Oc1ccc(Oc2cnc3ccc(Cl)cc3n2)cc1)C(=O)O 0.355 µM [inhibitor, single point]
Cc1ccc(N2CCN(CC(O)COc3cccc4ccccc34)CC2)cc1 (configuration not stated) 0.891 µM [activator, full curve]
Cc1ccc(S(=O)(=O)c2nc(S(=O)(=O)c3ccc(C)cc3)c(NCc3ccco3)s2)cc1 8.91 µM [inhibitor, partial curve]
COc1ccccc1Nc1nc2c(s1)CCC2 28.2 µM [inhibitor, single point]
O=C(/C=C/c1ccc(Cl)cc1)Nc1nc(-c2cccs2)ns1 5.01 µM [inhibitor, full curve, poor fit]
CCCCc1ccc(NC(=S)NCc2cccs2)cc1 44.7 µM [inhibitor, single point]
CCOC(=O)c1c(Cc2cccc(Cl)c2)c[nH]c1C 44.7 µM [inhibitor, single point]
CC(=O)C1=C(C)OC2(O)c3ccccc3C(=O)C12O (configuration not stated) 2.82 µM [inhibitor, full curve]
COc1ccc(NC(=O)c2oc3ccc(S(=O)(=O)N4CCC5(CC4)OCCO5)cc3c2C)cc1Cl 17.8 µM [inhibitor, partial curve, poor fit]
COc1ccc(/C=C2\C(=O)N(c3c(Cl)cc(Cl)cc3Cl)N=C2NC(=O)c2cccc([N+](=O)[O-])c2)cc1 1.78 µM [inhibitor, full curve, poor fit]
Cc1cccc(S(=O)(=O)Nc2ccc(-c3nc4ccc(C)cc4s3)cc2)c1 15.8 µM [inhibitor, partial curve]
COc1ccc(Sc2nnc(-c3ccccc3)cc2C#N)cc1 14.1 µM [inhibitor, partial curve]
C(=N\Nc1ccccn1)/c1ccc(N2CCOCC2)cc1 8.91 µM [activator, single point]
O=C(CSc1nnc(Cc2ccccc2)o1)NCc1ccc2c(c1)OCO2 0.0251 µM [inhibitor, full curve, poor fit]
Cc1ccc(/C=C/C(=O)c2ccccc2)cc1 44.7 µM [activator, single point]
CC(C)NC[C@@H](O)c1ccc(O)c(O)c1 11.2 µM [inhibitor, partial curve]
CC(C)c1ccc(/C=C2\CC/C(=C\C=N\N(C)C)C2=O)cc1 12.6 µM [inhibitor, single point]
COc1ccc2c(c1)c1nc3ccccc3nc1n2CCn1c(=O)oc2ccccc21 0.562 µM [inhibitor, full curve]
CC1(C)C([N+](=O)[O-])C(c2ccccc2O)NC(c2ccccc2O)C1[N+](=O)[O-] (configuration not stated) 14.1 µM [inhibitor, partial curve, poor fit]
COc1cc(C2C(C#N)=C(N)Oc3n[nH]c(C)c32)ccc1OC(=O)c1ccccc1 (configuration not stated) 22.4 µM [inhibitor, single point]
